The values that follow come from PubChem BioAssay (NCI).

Molecules are shown by their SMILES. Some compounds were tested as several samples or in several runs, with calls that do not always agree.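 Plates (96-well) were seeded with cells, treated with compound at one concentration, and incubated for 48 hours before percent growth was determined.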 The source holds more than one record for some entries. The list is limited to them. Rule for the calls: active = growth percent below 10; inactive = the rest. An entry can have further records. These are repeated runs of one drug, at its own concentration, as given; one value stands for one run. Brackets with × count equal records among those shown.

The assay deals with KM12 colon. Kind of assay: NCI-60 one-dose screen, 48 h (100 = growth as untreated, 0 = no growth, -100 = all killed).

Regarding `COc1cccc2c1C(=O)c1c(O)c3c(c(O)c1C2=O)C[C@@](O)(C(=O)CO)C[C@@H]3OC1CC(N)C(O)C(C)O1` (stereo partly specified), the growth entry was “inactive: 66.5, 64.4, 57.2, 54.3, 51.9 (2×), 49.7 (2×), 47.1, 48.3, 55.5 (2×), 50.6, 50.5, 46.9, 45.8 (2×), 50.8, 49.6, 49.9, 46.4, 53.5, 60.5 (2×), 53.3, 52.5, 45.4, 48.1 (2×), 49.5 (2×), 58.2, 49.3, 61.2, 62.8 (2×), 50.1, 57.8, 58.5, 48, 53.9 (2×), 51.1, 56 (2×), 52.8, 55.1, 51.5, 56.2, 45.9, 53.2, 53.1, 55.6 (2×), 59.5, 56.5 (2×), 51.4, 56.8, 56.7, 54, 54.7, 52.2 (2×), 48.4, 47.8, 56.4, 58.8, 47.4, 48.8, 55.9, 56.1, 50.7, 52.4, 56.6 (2×), 48.9, 48.5, 50.3, 53.4, 57, 58.6, 55.4, 55, 54.1, 58.7, 56.9%” (0.25 µM, runs of 2017); “inactive: 55.4, 57.8, 56.1 (3×), 59.7 (2×), 56.3 (2×), 54, 51.4, 53.8, 60.9 (2×), 60.7, 69.2, 66.6 (2×), 61.3, 57.7, 63.1, 64.3, 62, 60.8, 47.8, 64.4, 62.1, 57.6 (2×), 55.7, 56.2, 61.6, 52.1 (2×), 53.1, 62.2, 55 (2×), 59.5, 53.4, 61.7, 57.2, 49.8, 69.9, 58.5, 50.7, 64, 62.9, 66.9, 40.1, 47.4%” (0.25 µM, runs of 2018); “inactive: 48.6, 39.1, 45.4, 36.3, 38.4, 47.6, 51, 47.1, 42.9, 44.1, 51.7, 45.9, 52.7, 57.3, 63.7, 51.9, 55.7, 49.1 (2×), 61.4, 56.5, 52.1 (2×), 46.2, 53.6, 53 (2×), 49.8, 37.9, 54.7, 46.1, 51.8, 45.7, 45.3, 47.8, 67.8, 57.4, 55.9, 55, 85.1, 56.9, 54.3, 60.7, 63.9 (2×), 61, 49, 52.5, 49.9%” (0.25 µM, runs of 2019); “inactive: 38.7, 44.3, 58.1, 57, 67, 83.4, 60.3, 68.2, 57.3, 61.2, 58.5, 58.6, 58.7, 72.8, 64.4, 56.8, 59.6, 57.9 (2×), 60.8, 65.4, 63.5, 62.8, 64.5%” (0.25 µM, runs of 2020); “inactive: 78.1, 82.3, 65.2, 70.8, 57.4 (2×), 58.8, 55.2 (2×), 74.7, 64.6, 62.4, 51.9, 56.9, 59, 67.6 (2×), 65.1, 66.1, 90.5, 68.4, 49.7, 49.5, 67.9, 57.8, 58.4, 65.7, 66.5, 57.9, 65.6, 60.9, 60.4, 61.4, 96.9, 53.6, 48.7 (2×), 55.3, 63.2, 63.6, 63.3, 67.8, 48.2 (2×), 50.6, 40.2, 57.5, 71.7, 62.1, 63.8, 65.8, 63.4, 62.7%” (0.25 µM, runs of 2021); “inactive: 16.6, 18.8, 47.5, 52.2, 12.5, 55, 35, 48.9, 48, 56.6, 74.7, 61.9 (2×), 70.1, 53.6, 62.3, 50.3, 42.2, 86.2, 89, 91, 82.3, 87.6, 55.3, 58.5, 61.7%” (0.25 µM, runs of 2022). The growth result is “active: 0.911, 2.14, -17.3, -14.8, -19.5, -26.3, -5.25, -12.5, -1.84, 2.29, -20.8, -18.5, 8.16, -27.1, -18.4, -23.7, -24.1% and inactive: 10.8%” (25 µM, runs of 1991); “active: 3.12, -0.318, 5.36, -0.888, -23.9, -7.37, -10.3, 0.297, -36, -52, 8.18 (2×), 7.02, 1.36, 3.41, -4.26, 5.31, -25.6, -19.2, -6.35, -27.6, -20.2, -45.2, 6.56, -24.9, 1.75, -7.3, -4.52, -45, -1.89, -28.5, -15 (2×), -19.8, -11, -2.91, -17.8, 0.402, 2.7 (2×), -21.9, -5.99, -14.7, 7.29, -37, 1.87, -25, -16.3, -7.38, -16.9, -29, -33.6, -7.14, -11.3, -10.2, -6.16, -23.3, -13.2 (2×), -18, -16.8, -0.82, -43.8, -30, -9.65, -35, -7.8, -13.9, -14.5, 1.12, 1.35, 1.21, -24.8, -23.2, -33, -23.8, -12.6, -34.3, -31.2, -10.5, -12.4 (2×), -40.6, -2.16, -22.6, -44.2, 5.04, -14, -31.3, -25.5, -50.9, -24.3, -19.5, 0.785, -35.1, -30.8, -3.85, -34.6, -14.1, 8.44, 4.66, -25.3, -21.5, -29.7, -32.2, -7.44, -22.8, -14.9% and inactive: 14.5%, 11.1%, 11.3%” (25 µM, runs of 1992); “active: -1.96, -9.51, -24.2, -43.3, -3.15, -11.9, -26, -32.2, -7.11, -29.3, 2.28, -8.94, 0.895, -15.4, -25.7, -18.1, -18.4, 0.117, -0.784, -21.6, -30.3, -17.5, -36.1, -20.5, -11.4, -12.4, -14, 0.498, -33.5, -44.3, 0.73, -23.7, -64.7, -40.9, -39.1, -41.4, -21.9, -29.1 (2×), -13.2, -10.2, -32.3 (2×), -53.8, -10.5, -64.6, -35.5, -5.75, -62.3%” (25 µM, runs of 1993); “active: -19.3 (2×), -1.54, -21.9, -37.1, -6.5, -25.9, -1.74, -39.5, -32.5, -12.5, -38.2, -23, 2.15, -21.2, 6.14, -28.1, -26.4, -16.5, -53.7, -14.6, -42.3, -36.3, 6.11, -12, -3.98, -4.19, -42.4, -17.2, -20.6, -19.6, -8.36, -9.42%” (25 µM, runs of 1994); “active: -13.6, 4.39, -44.7, -8.65, -73.6, -24.3, -28.8, 1.9, -39.7, -21.8, -3.95, -20.7, -33.7, -14.6, -24.1, -20.6, -9.41, -35.9, -57.3, -60.6, -6.85, -38, -29, -46.1, -58.6, 1.58, -4.98, -29.9, -11.3, -19.3, 5.11, -51.7, 4.61, 0.811, -21.1, 2.97, -16.7, -22.8% and inactive: 16.2%” (25 µM, runs of 1995); “active: -6.9, -14.8, -35.5, 5.72, -68.5, 4.79, -4.44, -35.2, -9.39, -19.8, -22.7, -4.14, -0.465, -2.94, 0.849, -21.7, 9.35, -5.03, -0.696, -24.4, -26.2, 0.151, 2.56, -72.9, 0.26, 1.73, -10.9, -20, -19.4, -57.2, -11.5, 1.41, -9.83, -10.2, -30.7, 1.75, -38.9, -5.83, -24.3, 0.956, -1.72, -27.7, -39.9, -6.6, 2.77, 3.48, -27.4, -18.7, -11.8, -39.2, -36.8, 3.86, 2.01, -60.8, -9.78% and inactive: 11.7%, 118%, 14.7%” (25 µM, runs of 1996). Further, the growth entry (25 µM, runs of 1997) is “active: 5.35, 8.81, 0.545, -34.6, -9.38, -44 (2×), -46.3, -2.66, -26.2, -42.8, -16.4, 1.79, -73.9, -3.06, -26.7, -44.7, -44.4, -26.6, -18.2, -16.9, -10.5, -27.3, -7.6, -28.4, 7.91, 5.59, -22.9, -3.42, -29.7, 3.39, -32.5, -6.01, 2.64, -48.7, -38.4, -24.8, -29.6, -27.6, -10.9, -9.82, -8.33, -47.6, -31.3% and inactive: 98.5%”; the growth result (25 µM, runs of 1998) is reported as “active: 5.27, -18.1, -19.8, -5.45, 2.72, -45.1, -7.14, -25.6, -35, -58.4, -43.1, -14, -16.7, 0.0817, 1.02, -25.4, -14.1, 1.12, -6.53, -4.9, 0.558, -70.6, 7.03, 1.5, -13.9, -25.2, -10.1%”; the growth entry (25 µM, runs of 1999) was “active: -14.1, -4.6, 5.56, -40.5, -22.9, -70.4, 1.82, -73.1, 3, 0.354, -100, -46.5% and inactive: 28.4%”; the growth result (25 µM, runs of 2000) is “active: 1.22, -100, 5.3, -39.1%”.
